# Whole data set: some 33,000 sequences, median “E-score (-0.5 to 0.5)” near -0.04, cut for the highest 2% near 0.36. Some of the results follow.
# Target: T1, Hmlalpha2 (UniProt P0CY09)
# T1 sequence: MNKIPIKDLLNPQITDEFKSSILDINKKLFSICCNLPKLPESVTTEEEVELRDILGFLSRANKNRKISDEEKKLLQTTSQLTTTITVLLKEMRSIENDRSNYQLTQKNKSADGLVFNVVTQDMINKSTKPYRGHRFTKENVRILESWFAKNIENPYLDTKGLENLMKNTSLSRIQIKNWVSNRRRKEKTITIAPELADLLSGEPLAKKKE
# Test: PBM E-score (8-mer binding enrichment) (E-score (-0.5 to 0.5)); higher = stronger / more preferred TF binding; most listed sequences are background and not binding sites
# Conditions: protein concentration: 200 nM; construct: GST-full length
# Method in brief: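 Universal all-10-mer Agilent arrays, fresh or stripped once, were converted to double-stranded form by primer extension. GST-tagged yeast transcription factors from PURExpress in vitro transcription/translation, full-length or DNA-binding domain only, were applied at about 100-200 nM and detected with fluorescent anti-GST. After masliner normalisation, the Universal PBM Analysis Suite scored each ungapped eight-base word together with its reverse complement by E-score.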
row,Sequence,PBM E-score
1,GAATTTAA,0.0915
2,GTCGCCAA,-0.173
3,TCACAACA,0.324
4,CCACTCAA,0.1
5,CCGCCTGC,-0.227
6,ATATGACA,0.18
7,CTACCACA,-0.0802
8,ATGTTGGG,0.159
9,CATGGCGA,0.00745
10,AGGAAGGA,-0.126
11,AACTGAAC,-0.221
12,CGGGTTCC,-0.0966
13,TACAGCAA,0.151
14,AACCCTTA,0.176
15,CCAGCTGA,-0.0503
16,CATAAAAC,0.121
17,GGGGGAGA,-0.351
18,AGCCGCGG,-0.196
19,AGGACGGC,-0.0368
20,ATTCGACA,0.218
21,ACACCTTC,0.00154
22,GCTAGGCA,-0.23
23,CTCGTCAG,-0.0334
24,CCGCTCTC,-0.296

row,Sequence,PBM E-score
1,ACATGCCA,0.397
2,ATCCCTGC,-0.119
3,AATAATTC,0.197
4,AGGACTAC,-0.172
5,AAATTAGG,-0.021
6,ACCCAGAA,0.138
7,GCCTCTGA,-0.251
8,CAGGCACC,-0.143
9,ATTTAGGA,0.0554
10,AAGAGTCC,-0.297
11,ATAATGAA,0.167
12,CGCCTTGC,-0.0769
13,TGACGTAA,0.288
14,AGGATTTG,0.0442
15,ATAGCAGG,-0.0449
16,AACTCAGG,0.0157
17,CGCTGTAG,-0.00579
18,CGTCTTAG,-0.106
19,AGGAGATA,-0.12
20,GGGCCGTA,-0.168
21,CGGTCCCC,-0.347
22,ACGCGGAG,0.0752
23,GACCAGAC,-0.157
24,GCGCGCCC,-0.278

row,Sequence,PBM E-score
1,GCGCACTA,-0.166
2,AAGTGAAA,0.0896
3,ACTATTGC,0.0154
4,CTACAACA,0.283
5,ATAGACGA,0.132
6,CCATGAAG,-0.0572
7,CTAGCCCA,-0.216
8,AGGACCTG,-0.245
9,CGCTCACA,-0.148
10,AGTTCAGA,-0.0654
11,ATCAGCTA,-0.0578
12,GAAACATA,0.192
13,AGGATGTC,0.0843
14,CGATGACA,0.181
15,CTGGCGGA,-0.213
16,GTGCGGCA,-0.231
17,ACAATAGC,0.1
18,CCGTTTGA,-0.0311
19,CCGTCTGA,-0.211
20,ACTTAAGA,0.112
21,CCGCTCAC,-0.38
22,GCTTACAC,0.362
23,ATCCTGCC,-0.273
24,ACGTTGGG,0.0081

row,Sequence,PBM E-score
1,GGAACAAC,-0.00609
2,TCAGGAGA,-0.123
3,CCGTAACG,-0.203
4,ACGGTATA,-0.104
5,GAGGTAAA,0.228
6,GAGGGAAC,-0.165
7,AACGTGTC,0.263
8,GGAGAGCC,-0.176
9,CCGAGGAC,-0.123
10,GAAACGTA,0.0718
11,GTGGCGAA,0.105
12,ACAGTCGT,-0.114
13,GAACAGCA,0.148
14,GCTCAACA,0.257
15,AAGCGACT,-0.0487
16,ATGACAAC,0.251
17,AAAATTCC,-0.0102
18,GATGCGAC,-0.26
19,GTTTCCCA,-0.0865
20,ACTTGCCT,-0.0609
21,CACGAAGC,0.025
22,CGCGGCAC,-0.0823
